Source: PubChem BioAssay AID651820 (National Center for Advancing Translational Sciences (NCATS), 2012)
Screen size: about 340,000 compounds; about 12,000 (3.5%) were called active. Inconclusive results, whose numbers are uncertain, are shown with a selection of clear calls. Calls come from the whole dose curve; as a rule, active = well fitted inhibition curve with a large enough effect; inconclusive = small, poorly fitted or top-dose-only effect, or another doubt; inactive = no such curve, though single readings can be large or run the other way. No potency is given beside an inconclusive call; the fits are too rough.

Experiment: qHTS Assay for Inhibitors of Hepatitis C Virus (HCV)
Conditions: Huh7.5.1 HCVcc-Cre (HCVcc is cell-culture hepatitis C virus) infection, luciferase reporter, 44 h; activity change, negative = inhibition: at 41.8 µM (top of the series)
Outline: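 Cells seeded at 1,000/well and cultured 4 h, then compounds added followed by HCVcc-Cre virus (~0.5 moi). After 44 h further culture, luciferase substrate was added, plates held 15 min at room temperature, and luminescence read for 15 sec.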
% is set by controls: 0 for no effect and ±100 for the full control effect; potency is the fitted concentration of half-maximal effect; tags give direction and shape of the fitted curve.

SMILES	Potency	activity change, negative = inhibition
CC[C@H](CO)NCCN[C@H](CC)CO	inconclusive [inhibitor, full curve]	
CN1CCc2cc(O)cc3c2[C@H]1Cc1ccc(O)c(O)c1-3		inactive: 26.9%
Cc1cccc(OCc2nnc(SCC(=O)Nc3nccs3)o2)c1	inconclusive [inhibitor, full curve]	
Cc1ccc(NC(=O)CSc2nnc(-c3ccccc3C)o2)cc1C		inactive: -9.99%
COc1cccc(-c2nc(CS(=O)(=O)CC(=O)NCc3ccccc3)c(C)o2)c1	inconclusive [inhibitor, partial curve]	
CCN(CC)C(=S)SCC(=O)c1c(C)[nH]c2ccccc12	inconclusive [inhibitor, single point]	
CCOC(=O)c1sc(-c2ccc(OC)cc2)cc1NC(C)=O	inconclusive [inhibitor, single point]	
C=CCn1cccc(C(=O)Nc2ccc(OCC)cc2)c1=O	active: 11.2 µM	
CCCCNc1c(-c2ccc(OC)c(SC(C)CC)c2)nc2ccc(Cl)cn12 (stereo unspecified)	inconclusive [inhibitor, single point]	
CCC(=O)OC1CC(C)N(C(=O)c2ccccc2)c2ccc(C)cc21 (stereo unspecified)	inconclusive [inhibitor, partial curve, poor fit]	
C=CCn1c(=N)n(CC(=O)c2ccc(Br)s2)c2ccccc21	inconclusive [inhibitor, full curve]	
CCc1ccc(Nc2nnc(SCC(=O)Nc3ccc(C(=O)O)cc3)s2)cc1		inactive: 20.2%
Cc1ccc(NC(=S)NC(=O)Cc2ccccc2)c(O)c1		inactive: 16.2%
COc1ccc(Nc2nc(N3CCCCC3)nc3ccccc23)c(OC)c1	inconclusive [inhibitor, single point]	
CCCc1nc2c(sc3nc4c(cc32)COC(C)(C)C4)c(=O)n1CCN(CC)CC		inactive: 2.8%
CC(=O)Nc1ccc(/C=C/c2nc(-c3ccccc3O)n[nH]2)cc1	inconclusive [inhibitor, full curve]	
CN(C)c1nc2ccccc2n(C)c1=O		inactive: -4.7%
FC(F)Sc1ccc(NC(=S)NCC2CCCCC2)cc1	active: 31.6 µM	
COc1ccc(-c2nc3ccccn3c2NC2CCCCC2)cc1SC1CCCCC1	inconclusive [inhibitor, partial curve]	
CC1(C)CC(NC(=O)c2cccc(S(=O)(=O)N(Cc3ccccc3)c3ccccc3)c2)CC(C)(C)N1	active: 2.24 µM	
COc1ccc(NC(=S)N2CCCCC2c2cccnc2)cc1 (stereo unspecified)	inconclusive [inhibitor, partial curve, poor fit]	
